Assay results published in the supplement of paper PMC3334620.
Whole data set: some 33,000 sequences, median “E-score (-0.5 to 0.5)” near -0.021, cut for the highest 2% near 0.32. Some of the results follow.

target: T1, Zap1 (UniProt P47043); experiment: PBM E-score (8-mer binding enrichment) (E-score (-0.5 to 0.5)); higher = stronger / more preferred TF binding; most listed sequences are background and not binding sites; conditions: protein concentration: 200 nM; construct: GST-full length
T1 sequence: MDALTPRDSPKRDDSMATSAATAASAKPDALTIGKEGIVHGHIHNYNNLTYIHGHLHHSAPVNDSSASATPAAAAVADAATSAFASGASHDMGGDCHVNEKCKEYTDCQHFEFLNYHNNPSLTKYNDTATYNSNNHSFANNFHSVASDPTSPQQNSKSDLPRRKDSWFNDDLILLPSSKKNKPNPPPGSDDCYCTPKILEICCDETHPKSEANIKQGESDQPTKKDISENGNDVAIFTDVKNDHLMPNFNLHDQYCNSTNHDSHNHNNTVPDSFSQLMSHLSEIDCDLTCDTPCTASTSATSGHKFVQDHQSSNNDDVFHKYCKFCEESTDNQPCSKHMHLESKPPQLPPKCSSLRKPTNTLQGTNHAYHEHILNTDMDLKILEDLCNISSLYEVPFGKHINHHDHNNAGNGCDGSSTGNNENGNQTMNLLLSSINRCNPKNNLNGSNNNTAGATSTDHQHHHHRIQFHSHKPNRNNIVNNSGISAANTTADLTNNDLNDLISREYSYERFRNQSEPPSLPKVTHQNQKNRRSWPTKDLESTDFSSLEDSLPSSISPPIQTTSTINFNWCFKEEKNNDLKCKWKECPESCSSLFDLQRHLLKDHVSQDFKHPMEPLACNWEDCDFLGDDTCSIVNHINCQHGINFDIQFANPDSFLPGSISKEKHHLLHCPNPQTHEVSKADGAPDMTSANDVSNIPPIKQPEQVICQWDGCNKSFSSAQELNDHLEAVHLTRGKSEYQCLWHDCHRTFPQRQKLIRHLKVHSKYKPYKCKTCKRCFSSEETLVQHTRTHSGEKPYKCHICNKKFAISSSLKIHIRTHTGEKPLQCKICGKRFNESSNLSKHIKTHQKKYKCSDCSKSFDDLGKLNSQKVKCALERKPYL
Experimental: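 Universal 'all 10-mer' protein binding microarrays (Agilent AMADID 015681) probed with GST-tagged S. cerevisiae TFs (full-length or DBD) made by in vitro transcription/translation (PURExpress), about 100-200 nM. Bound TF was detected with fluorescent anti-GST. Each ungapped 8-mer (which stands for itself and its reverse complement) is scored by the PBM enrichment score (E-score), a modified Wilcoxon-Mann-Whitney statistic from -0.5 to +0.5, computed with the Universal PBM Analysis Suite. Scale: above 0.35 generally sequence-specific binding.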

Row | Sequence | PBM E-score
1 | AGGTCTAC | -0.0448
2 | CGCTATCC | -0.0484
3 | TCTCCAAA | 0.0387
4 | GCACTCGA | -0.196
5 | CGAATAGA | -0.00013
6 | CCTTGGCG | -0.0237
7 | ACCAGTTC | -0.00783
8 | CATAAGCG | -0.165
9 | ACTTATTA | 0.00789
10 | GAGCTTAA | -0.0983
11 | AGGAGTAA | 0.0217
12 | CTTCCACC | -0.244
13 | CCGGTACG | -0.136
14 | ATCAGGGA | -0.178
15 | AAGTTGGC | -0.122
16 | ATGCTATG | -0.0819
17 | GCTGTTCC | -0.195
18 | GTCCGTAA | 0.175
19 | ATCTAGTA | 0.0981
20 | CCGGAGAA | -0.127
21 | CGTGTGAC | -0.0152
22 | GCCATCCA | -0.197
23 | AGAGGGCA | -0.221
24 | GCGCCCAC | -0.0445

Row | Sequence | PBM E-score
25 | ACGAAACT | 0.0627
26 | ATATACGA | -0.138
27 | ATTCGTCC | 0.133
28 | CGCAGCGC | -0.229
29 | AAAGTGAG | 0.0903
30 | ATAGCGAC | -0.0934
31 | ACATGTCT | -0.0899
32 | AAGCAACG | -0.109
33 | AACCTAGA | 0.289
34 | GAACCGCA | 0.149
35 | ATGACTGA | -0.0766
36 | CTAGTGGA | -0.0431
37 | AATGCTAC | 0.00654
38 | CGCATTCA | -0.0717
39 | GTCTCTTA | -0.0277
40 | CGCATCAG | 0.0143
41 | CCGCAACA | 0.162
42 | CCGTTCTA | 0.111
43 | CGCGCCAA | 0.0785
44 | TGAAGGAA | -0.0768
45 | ATATCACC | 0.0316
46 | ACGGGTCG | 0.116
47 | ATTTAATG | 0.176
48 | ACATTGGA | -0.106

Row | Sequence | PBM E-score
49 | ATGTAGCC | -0.131
50 | ACGAAGCT | -0.141
51 | AGAGCCGC | -0.169
52 | CCGAGCCG | -0.165
53 | ATCAACCA | 0.0761
54 | CCGGTTAC | 0.398
55 | GGTCCTAC | -0.105
56 | ATGATCAA | 0.241
57 | ATTCTTGA | 0.0771
58 | ATTGCCCG | -0.208
59 | GCTGATCA | -0.0643
60 | TATTGAAA | 0.201
61 | AGCGCTGA | -0.156
62 | CATGGCAG | -0.0211
63 | AATGGGGA | -0.0221
64 | GTCACCAA | 0.0469
65 | TGGGGGAA | -0.399
66 | ACGCGCTG | -0.148
67 | CCACGGTA | 0.0158
68 | GACACAAC | 0.161
69 | AAACAGTA | -0.0723
70 | GCATATGA | 0.0416
71 | AAGAGTTA | 0.121
72 | AATGGGCG | -0.204

Row | Sequence | PBM E-score
73 | CGAGCCTA | -0.191
74 | CCTTTAGC | 0.0766
75 | CATACCGC | 0.0183
76 | GCCTCCAC | -0.239
77 | AGCTCGTG | -0.00259
78 | ACCGATCC | -0.145
79 | AAACGTTT | 0.0998
80 | CTGCACGA | 0.123
81 | CTGTGCCC | -0.171
82 | AGTGTTCA | 0.00139
83 | GAGGAGAC | -0.324
84 | ACCCGTCC | -0.0889
85 | GAAACCAA | 0.271
86 | AAGCGCGC | 0.0553
87 | ACGTGCTG | 0.0361
88 | TCCGGGCA | -0.222
89 | CCGAGTTC | 0.0438
90 | TCCTAGAA | -0.0357
91 | ATAGGGCC | -0.158
92 | CCTCGATC | 0.0275
93 | CGATACGC | -0.106
94 | AATATGGC | -0.0625
